From publication PMC4336329 (PLoS ONE, 2015)
About 2,200 (0.71%) of roughly 310,000 compounds showed an effect of 50% or more. The effect is printed as a negative number. The list shows a part of the results.

biological target: human ether-à-go-go-related gene (hERG) potassium channel (human, UniProt Q12809); assay: primary screen, population patch clamp on CHO cells stably expressing hERG
Sequence (Q12809 whole entry, looked up): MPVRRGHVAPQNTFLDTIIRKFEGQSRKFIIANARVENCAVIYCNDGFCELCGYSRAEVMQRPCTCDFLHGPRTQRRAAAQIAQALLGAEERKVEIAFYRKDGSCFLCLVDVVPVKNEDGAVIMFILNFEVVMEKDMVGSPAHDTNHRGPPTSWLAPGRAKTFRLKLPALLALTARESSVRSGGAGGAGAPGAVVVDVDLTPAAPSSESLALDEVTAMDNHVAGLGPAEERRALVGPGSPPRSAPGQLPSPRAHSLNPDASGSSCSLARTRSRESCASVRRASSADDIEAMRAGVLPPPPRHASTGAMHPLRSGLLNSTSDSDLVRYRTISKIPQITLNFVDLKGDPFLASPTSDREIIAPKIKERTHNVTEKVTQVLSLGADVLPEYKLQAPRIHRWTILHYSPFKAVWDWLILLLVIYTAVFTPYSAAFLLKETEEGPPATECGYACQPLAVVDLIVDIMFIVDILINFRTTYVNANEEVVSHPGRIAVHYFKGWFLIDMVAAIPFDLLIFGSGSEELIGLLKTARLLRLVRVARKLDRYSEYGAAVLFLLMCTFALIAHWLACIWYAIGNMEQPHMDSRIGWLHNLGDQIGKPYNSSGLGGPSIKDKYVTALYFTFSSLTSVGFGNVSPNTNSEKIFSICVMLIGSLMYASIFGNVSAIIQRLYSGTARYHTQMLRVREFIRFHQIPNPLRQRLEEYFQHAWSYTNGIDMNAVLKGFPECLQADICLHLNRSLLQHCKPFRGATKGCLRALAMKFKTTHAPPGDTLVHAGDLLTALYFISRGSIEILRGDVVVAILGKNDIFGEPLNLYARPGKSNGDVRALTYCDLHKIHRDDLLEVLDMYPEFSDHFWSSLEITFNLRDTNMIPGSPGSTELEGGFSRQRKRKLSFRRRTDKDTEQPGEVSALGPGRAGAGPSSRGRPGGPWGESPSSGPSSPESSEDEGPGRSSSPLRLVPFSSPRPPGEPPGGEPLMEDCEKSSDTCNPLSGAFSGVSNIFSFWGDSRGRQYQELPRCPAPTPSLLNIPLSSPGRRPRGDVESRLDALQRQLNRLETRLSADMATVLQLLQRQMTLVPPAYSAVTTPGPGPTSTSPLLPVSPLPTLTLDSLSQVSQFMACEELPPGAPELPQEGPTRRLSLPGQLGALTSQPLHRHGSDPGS

Row | Compound | hERG current change (%, negative = inhibition) at 1uM
1 | COc1cc(C(=O)Nc2nnc(CC(=O)N3CCOCC3)s2)cc(OC)c1OC | 4.85%
2 | O=C(c1ccc(CS(=O)c2cccc(Cl)c2)o1)N1CCOCC1 (stereo not shown) | 18.9%
3 | Cc1n[nH]c(C)c1S(=O)(=O)N1CCOCC1 | 8.7%
4 | O=C(CN1CCN(Cc2ccccc2)CC1)Nc1ccc(Cl)cc1 | -32.3%
5 | CCc1c(-c2ccccc2)nc2nc(C)c(C)nn12 | 8.9%
6 | Cc1ccc(-n2[nH]c(C)c(/C=N/n3c(C)nc4ccccc4c3=O)c2=O)cc1 | 2.74%
7 | Cn1c(=O)c2cc(S(=O)(=O)NCCC(=O)Nc3ccc(F)cc3F)ccc2n(C)c1=O | 3.85%
8 | COc1ccc(NC(C)=O)cc1S(=O)(=O)NC(Cc1ccccc1)C(=O)NCc1ccccc1C (stereo not shown) | 2.24%
9 | CC(C)(C)NC(=O)c1nc2ccccc2s1 | 9.66%
10 | Cc1ccc(S(=O)(=O)NN2C(=O)c3ccccc3NC2(C)C)cc1 | 4.79%
11 | COc1ccc(OC)c(NC(=O)CSc2nc(C)cs2)c1 | -10.6%
12 | Cc1ccn2c(/C=N/OCc3ccc(F)cc3)c(-c3ccc(Cl)cc3)nc2c1 | 6.35%
13 | CC1CCCN(CCCNS(=O)(=O)c2cc(Br)cc3c2N(C(=O)C2CC2)CC3)C1 (stereo not shown) | 12.2%
14 | CCn1cc(C(=O)N[C@@H](C)C(=O)NCCCN2CCOCC2)c(=O)c2cc3c(cc21)OCO3 | 18.9%
15 | O=C(NC1CCCCCCC1)C1CCCN(S(=O)(=O)c2cnc[nH]2)C1 (stereo not shown) | 15.9%
16 | O=C(NCc1cccnc1)c1ccc2c(c1)N(Cc1ccccc1)CCS2 | 4.52%
17 | Cc1ccc(-c2noc(CN3CCN(C(c4ccccc4)c4ccccc4)CC3)n2)cc1 | 17%
18 | Cn1cc(C(=O)C(=O)NCCc2ccccc2)c2ccccc21 | 10.3%
19 | COc1ccc2c(c1)C(=O)CC(c1ccc(OC)c(OC)c1)O2 (stereo not shown) | 11.5%
20 | CCC(C(=O)Nc1ccc(C(=O)Nc2ccccc2C(=O)O)cc1)c1ccccc1 (stereo not shown) | 17.6%
21 | O=C(COc1ccccc1Cl)Nn1cnnc1 | 17.3%
22 | COc1cc2c(cc1OC)C(c1cccs1)N(C(=O)c1ccc(S(=O)(=O)N(C)C)cc1)CC2 (stereo not shown) | -38.4%

Row | Compound | hERG current change (%, negative = inhibition) at 1uM
23 | COc1ccccc1NC(=O)c1cc2c(CO)cnc(C)c2oc1=Nc1cc(OC)c(OC)c(OC)c1 | 11.2%
24 | COC(=O)C1=C(C(=O)OC)[C@@H]2Nc3ccccc3[C@@]23C[C@@H](C(=O)OC)N(C(=O)c2cc(C)oc2C)C3=N1 | 22.7%
25 | Cc1cc(=O)oc2cc(OCC(=O)N3CCN(c4ccc(F)cc4)CC3)c(Cl)cc12 | 12.5%
26 | O=C(COC(=O)c1ccccn1)Nc1cc(Cl)ccc1Cl | 12%
27 | Cc1ccc(C(=O)NCCNS(C)(=O)=O)cc1 | 2.85%
28 | Cc1ccc(-n2nc3c(=O)n(C(C)C(=O)NCc4ccccc4Cl)nc(C)c3c2C)cc1 (stereo not shown) | 6.63%
29 | Cc1ccc(C)c(NS(=O)(=O)c2ccc3oc(=O)ccc3c2)c1 | 7.94%
30 | O=C(Cc1cccs1)NCc1cn2ccccc2n1 | 8.86%
31 | O=C(OCCOc1ccc(Br)cc1)c1cnccn1 | -2.31%
32 | COCCC(=O)N1CCCC(C(=O)c2ccc(Oc3ccccc3)cc2)C1 (stereo not shown) | -37%
33 | O=C(/C(=C(\O)c1ccccc1)c1nc2ccccc2[nH]1)c1ccccc1 | 2.7%
34 | COCCCNC(=S)N(Cc1ccccc1)Cc1ccccc1 | 10.6%
35 | COc1ccc(C2c3ccc4ccccc4c3Oc3ncn(CCN4CCOCC4)c(=N)c32)cc1OC (stereo not shown) | 10.9%
36 | CN(C)c1nc(N)nc(-c2nc3ccccc3s2)n1 | -2.08%
37 | O=C(CSc1ccsc1[N+](=O)[O-])N1CCN(c2ccccn2)CC1 | 11.5%
38 | O=C(Nc1cc(S(=O)(=O)N2CCCCC2)ccc1O)c1ccccc1NS(=O)(=O)c1ccc(F)c(F)c1 | 4.15%
39 | O=C(c1ccco1)N1CCN(C(=O)C2CCCN(S(=O)(=O)c3cccc4nsnc34)C2)CC1 (stereo not shown) | 5.75%
40 | N#Cc1c(-c2ccccc2)[nH]c(=O)[nH]c1=O | 13.6%
41 | O=C(Nc1cccc(NC(=O)c2cccs2)c1)c1ccc2c(c1)OCO2 | -0.492%
42 | Cc1cc2n(n1)SC(Nc1cccc3ccccc13)N2 (stereo not shown) | -8.91%
43 | COc1ccc(-n2ncc3c2CC(C)(C)CC3NC(=O)c2ocnc2C)cc1 (stereo not shown) | -12.9%
44 | CCCCN(CCCC)CCNC(=O)c1cn(CC)c2ccc(S(=O)(=O)N(C)C3CCCCC3)cc2c1=O | -84.2%

Row | Compound | hERG current change (%, negative = inhibition) at 1uM
45 | COc1ccccc1OCc1nnc(SCC(=O)NCc2ccco2)n1Cc1ccco1 | -2.19%
46 | COc1ccc(OC)c(C(=O)COC(=O)c2c(OC)cccc2OC)c1 | 6.21%
47 | Cc1cc(S(=O)(=O)N2CCOCC2)ccc1OCC(=O)Nc1ccc(F)c(Cl)c1 | 17.7%
48 | COC(=O)CN(C)C(=O)c1ccc2nc(Cc3cccc(Cl)c3)oc2c1 | 23.7%
49 | O=C(COc1ccc(Br)cc1CNCCCN1CCOCC1)Nc1ccccc1 | -11.3%
50 | CCCCNC(=S)N(Cc1ccco1)Cc1cc2cc3c(cc2[nH]c1=O)OCCO3 | 11.8%
51 | O=C(CCn1cccc1)Nc1ccc(F)cc1 | -3.51%
52 | CCN(CC)CC(=O)Nc1nc(-c2ccc(Cl)cc2)cs1 | 5.31%
53 | CCCC(C(=O)NCCC(C)C)N(Cc1ccccc1)C(=O)c1snc(C(N)=O)c1N (stereo not shown) | 18.1%
54 | O=Cc1cn[nH]c1-c1ccccc1 | 18.8%
55 | O=C1/C(=C\c2cccc(O)c2O)SC(=S)N1Cc1ccccc1 | 12.6%
56 | COc1ccc(N(CC(=O)NCc2ccc(F)cc2)C(=O)CCC(=O)Nc2ccccn2)cc1 | 5%
57 | Cc1sc2nc(COC(=O)Cc3ccccc3)[nH]c(=O)c2c1C | 4.02%
58 | Cc1cccc(-c2nc3sc(C)cc3c(=O)o2)c1 | 28.8%
59 | CCOC(=O)CN(C(=O)CN1CCC(n2nnc3cc(C)ccc32)CC1)c1ccccc1 | -23.3%
60 | NC(=O)C1(N2CCCCC2)CCN(CC(=O)Nc2cc(Cl)ccc2Cl)CC1 | -55.3%
61 | CC(C)NC(=O)C(=O)NCCC1CCCCN1S(=O)(=O)c1cccs1 (stereo not shown) | 8.63%
62 | CCC(C)Nc1nc(Cl)nc(N(C#N)CN2C(=O)c3ccccc3S2(=O)=O)n1 (stereo not shown) | 12%
63 | Cc1ccc(S(=O)(=O)N2CCC(C(=O)Nc3ccc4c(c3)OCO4)CC2)cc1 | -1.17%
64 | CCCOc1c(Cl)cc(C(=O)NC)cc1OC | 13%
65 | Cc1cccc(Cc2nnc(CCC(=O)N(CC3CC3)CC3CCCO3)o2)c1 (stereo not shown) | 11.6%
66 | CC(NC(=O)C1CCN(S(=O)(=O)c2ccc3nc4c(c(C(=O)O)c3c2)CCCC4)CC1)c1ccccc1 (stereo not shown) | 5.92%

Row | Compound | hERG current change (%, negative = inhibition) at 1uM
67 | CC(C)(C)NC(=O)CN(CC1CCCO1)C(=O)CNS(=O)(=O)c1ccc(F)cc1 (stereo not shown) | 21.7%
68 | Cc1cccc(COc2ccc(/C=N/NC(=O)c3nnn(-c4nonc4N)c3COc3ccc(F)cc3)cc2)c1 | 8.97%
69 | CC1(C)CC(=O)C/C(=N/NC(=O)COc2ccc3ccccc3c2Br)C1 | 8.33%
70 | COc1ccc(CCC(C)NCc2ccc(C(F)(F)F)cc2)cc1 (stereo not shown) | -22.6%
71 | O=C(CSc1nc(-c2cccs2)cc(C(F)(F)F)n1)Nc1cc(OCC(F)(F)F)cc([N+](=O)[O-])c1 | 18.9%
72 | Cl.O=C(c1ccco1)N1CCN(Cc2nnnn2CCc2ccccc2)CC1 | -5.12%
73 | CC(=O)N1N=C(c2cccs2)CC1c1ccc(Br)cc1 (stereo not shown) | 13%
74 | Cc1ccc(NC(=O)CSc2nc(=O)n3cc(C)ccc3n2)c(C)c1 | 4.38%
75 | COC(=O)c1cc(CSc2nnc(NC3CCCCC3)s2)oc1C | 10.5%
76 | Cc1cc(OCC(=O)N2CCC(C(=O)O)CC2)c2c3c(c(=O)oc2c1)CCCC3 | -5.74%
77 | COc1ccccc1C(=O)NCC(=O)OCc1ccc(Br)cc1 | 7.38%
78 | CC/C(=N\O)c1c(O)c2c(n(-c3ccccc3)c1=O)CCCC2 | 8.93%
79 | CCOc1ccccc1Nc1nc2ccccc2n1C(C)C | 11.5%
80 | CN1CCN(C(=O)c2ccc(S(=O)(=O)Nc3ccccc3)cc2)CC1.Cl | -1.71%
81 | Cc1ccc(NC(=O)CN2C(=O)CN=C(c3ccccc3)c3cc(Cl)ccc32)cc1 | 9.95%
82 | C/C(=N\NC(=O)c1cccnc1)c1cc(C)oc1C | 11.7%
83 | COc1ccc(CC(=O)N2CCC(Nc3nc4ccccc4n3Cc3ccc(F)cc3)CC2)cc1 | -36.8%
84 | COc1ccc2cc(C3CC(c4cccs4)=NN3C(C)=O)c(Cl)nc2c1 (stereo not shown) | 18.8%
85 | COc1ccc(/C=C/C(=O)OCC(=O)Nc2c(C)cccc2C)cc1 | -6.41%
